No constants are given. Whether binding was seen depends on the method and setting. Binding seen in cells or lysates may run through a third protein. Some results given as binding are weak or reduced against the parent protein; the word gives no strength.
Experiments:
[1] = target: LIM kinase1 (human (endogenous in HeLa)) (UniProt P53667); experiment: co-IP; endogenous proteins; HeLa cells synchronized to M phase with nocodazole for 16 h (interaction with LIMK1 also told for asynchronized cells); lysate incubated with anti-LIMK1 or anti-LIMK2 on magnetic Protein A beads, non-immunized rabbit IgG as control; washed four times with mammalian cell lysis buffer; western blot
[2] = target: LIMK2 (human (endogenous in HeLa)) (UniProt P53671); experiment: as above
[3] = target: GST-tagged LIMK1 kinase domain (UniProt P53667); experiment: pull-down; HEK 293 cells co-transfected with GST-tagged LIMK1 constructs and FLAG-LIC1 or FLAG-LIC2 for 24 h; lysate on Glutathione Sepharose 4B beads, washed thrice with mammalian cell lysis buffer; western blot with FLAG and GST antibodies

Amino acid sequences for entries named in this document (tags omitted). A change or cut given only in a name is not applied to a line headed by its entry. Chains listed by the source or under a name are the forms on record and can include a tag or linker. Residues count along the entry.
UniProt P53667: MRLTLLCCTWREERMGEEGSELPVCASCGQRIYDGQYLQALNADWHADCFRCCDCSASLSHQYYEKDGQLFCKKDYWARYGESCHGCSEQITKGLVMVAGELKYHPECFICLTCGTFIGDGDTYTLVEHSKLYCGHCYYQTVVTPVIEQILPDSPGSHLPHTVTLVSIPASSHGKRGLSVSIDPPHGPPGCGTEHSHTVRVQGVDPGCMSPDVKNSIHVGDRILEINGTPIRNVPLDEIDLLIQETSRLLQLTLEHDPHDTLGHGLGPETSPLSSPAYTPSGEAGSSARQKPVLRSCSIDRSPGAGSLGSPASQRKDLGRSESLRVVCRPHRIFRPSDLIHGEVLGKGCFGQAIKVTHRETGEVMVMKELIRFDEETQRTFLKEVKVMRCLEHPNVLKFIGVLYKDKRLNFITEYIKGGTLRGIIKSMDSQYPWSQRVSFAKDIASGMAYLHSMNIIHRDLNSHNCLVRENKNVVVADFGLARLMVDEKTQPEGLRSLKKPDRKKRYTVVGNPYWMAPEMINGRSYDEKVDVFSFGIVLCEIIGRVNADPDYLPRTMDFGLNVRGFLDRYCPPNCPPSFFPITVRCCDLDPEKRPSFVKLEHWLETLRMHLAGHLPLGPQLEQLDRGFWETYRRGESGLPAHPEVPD
GST-tagged LIMK1 kinase domain: residues 339-604 of P53667
UniProt P53671: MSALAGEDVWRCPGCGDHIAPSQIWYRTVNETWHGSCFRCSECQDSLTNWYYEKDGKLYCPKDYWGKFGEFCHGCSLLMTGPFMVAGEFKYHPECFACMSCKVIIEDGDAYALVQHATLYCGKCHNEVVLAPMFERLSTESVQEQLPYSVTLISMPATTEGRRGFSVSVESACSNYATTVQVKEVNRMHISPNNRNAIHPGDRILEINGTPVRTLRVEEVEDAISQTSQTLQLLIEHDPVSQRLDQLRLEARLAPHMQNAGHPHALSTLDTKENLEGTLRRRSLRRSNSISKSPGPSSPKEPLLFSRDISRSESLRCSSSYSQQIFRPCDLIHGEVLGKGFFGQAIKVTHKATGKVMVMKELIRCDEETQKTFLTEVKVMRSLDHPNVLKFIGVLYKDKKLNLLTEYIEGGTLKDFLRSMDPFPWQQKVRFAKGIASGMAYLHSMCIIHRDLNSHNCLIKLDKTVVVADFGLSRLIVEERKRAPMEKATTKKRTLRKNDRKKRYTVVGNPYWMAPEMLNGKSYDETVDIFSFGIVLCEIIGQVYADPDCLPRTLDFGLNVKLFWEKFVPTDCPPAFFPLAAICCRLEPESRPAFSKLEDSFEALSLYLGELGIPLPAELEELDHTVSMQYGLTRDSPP
UniProt Q9Y6G9: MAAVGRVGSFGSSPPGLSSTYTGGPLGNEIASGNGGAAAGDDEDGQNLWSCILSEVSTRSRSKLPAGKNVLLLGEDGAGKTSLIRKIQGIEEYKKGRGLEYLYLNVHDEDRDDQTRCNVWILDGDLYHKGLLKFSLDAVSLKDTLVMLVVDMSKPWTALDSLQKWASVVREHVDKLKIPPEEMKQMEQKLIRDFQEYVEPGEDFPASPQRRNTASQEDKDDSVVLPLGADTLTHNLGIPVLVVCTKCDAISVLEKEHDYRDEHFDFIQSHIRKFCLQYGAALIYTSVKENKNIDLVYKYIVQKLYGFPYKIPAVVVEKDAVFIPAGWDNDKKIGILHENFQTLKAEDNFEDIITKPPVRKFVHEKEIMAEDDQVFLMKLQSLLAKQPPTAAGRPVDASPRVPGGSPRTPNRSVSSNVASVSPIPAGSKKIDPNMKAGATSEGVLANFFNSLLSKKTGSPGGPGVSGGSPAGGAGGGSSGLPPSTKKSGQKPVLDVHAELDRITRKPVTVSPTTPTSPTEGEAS
UniProt O43237: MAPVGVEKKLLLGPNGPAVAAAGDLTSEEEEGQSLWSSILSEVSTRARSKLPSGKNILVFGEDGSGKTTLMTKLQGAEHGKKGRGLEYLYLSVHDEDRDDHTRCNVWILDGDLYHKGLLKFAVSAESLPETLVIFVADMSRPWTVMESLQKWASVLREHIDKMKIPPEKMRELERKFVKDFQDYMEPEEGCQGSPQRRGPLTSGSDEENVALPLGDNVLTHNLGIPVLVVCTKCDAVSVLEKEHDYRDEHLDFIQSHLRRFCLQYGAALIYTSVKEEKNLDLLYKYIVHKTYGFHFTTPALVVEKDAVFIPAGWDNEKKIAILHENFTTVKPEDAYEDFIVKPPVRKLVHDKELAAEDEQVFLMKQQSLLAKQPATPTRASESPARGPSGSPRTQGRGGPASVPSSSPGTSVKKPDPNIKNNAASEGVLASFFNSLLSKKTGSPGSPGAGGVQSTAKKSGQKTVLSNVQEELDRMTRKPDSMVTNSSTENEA

Row | binding [1] | binding [2] | binding [3] | Substance
1 | binds | no binding |  | Cytoplasmic dynein 1 light intermediate chain 1 (from UniProt Q9Y6G9 1-523)
2 | binds | no binding |  | Cytoplasmic dynein 1 light intermediate chain 2 (from UniProt O43237 1-492)
3 |  |  | binds | FLAG-LIC1 (from UniProt Q9Y6G9 1-523)
4 |  |  | binds | FLAG-LIC2 (from UniProt O43237 1-492)

Source: paper PMC6030115
